Experimental data as given in patent US8304419B2, “Chemical compounds” (priority 2007, dated 2012).

Legend:
Test in all cases: microbe, parasite or virus in culture
[1] = test system: HIV-1 Y181C RT mutant; settings: Human immunodeficiency virus 1, HeLa, read-out: Y181C activity level, HeLa-CD4-LTR-β-gal cells, Y181C virus
Text: (§1) The HeLa cell assay described herein is a modified version of Kimpton J. and Emerman M., Detection of replication-competent and pseudotyped human immunodeficiency virus with a sensitive cell line on the basis of activation of an integrated β-galactosidase gene, J. Virol. 66:2232-2239 (1992), in which HIV-1 infection is detected by the activation of an HIV-LTR driven β-galactosidase reporter that is integrated into the genome of a CD4+ HeLa cell line. Quantitation of β-galactosidase is achieved by measuring the activation of a chemiluminescent substrate (Applied Biosystems). The concentration of each compound required to inhibit 50% (IC50) of the HIV-1 induced β-galactosidase signal, relative to untreated controls, is determined for each isogenic, recombinant virus.
(§2) HeLa-CD4-LTR-β-gal cells are propagated in DMEM containing 10% fetal bovine serum+0.2 mg/ml geneticin+0.1 mg/ml hygromycin B. Cells are split by standard trypsinization when confluency reaches 80% (roughly every 2 to 3 days).
(§3) DNA encoding the HIV-1 reverse transcriptase is subcloned from a M13 phage into a general shuttle vector, pBCSK+, as a −1.65 kbp EcoRI/HindIII ended DNA fragment. The HIV DNA insert of the resulting plasmid, is completely sequenced on both strands prior to use in site directed mutagenesis experiments. Specific amino acid replacements are made using Stratagene Quick Change reagents and mutagenic oligonucleotides. The mutations that are made include K103N, V106A, Y181C, and Y188L. Following mutagenesis, the entire mutant RT coding sequence is verified by sequencing both DNA strands.
(§4) K103N, V106A, Y181C, and Y188L mutant HIV-1 strains and wild type strains are isolated by a modified Recombinant Virus Assay (Kellam P. and Larder B., Recombinant virus assay: a rapid, phenotypic assay for assessment of drug susceptibility of human immunodeficiency virus type 1 isolates, Antimicrobial Agents and Chemotherapy, 38:23-30, 1994). Ten million MT4 T-cells (maintained in RPMI containing 10% fetal bovine serum, split 1:5 every 5 to 6 days) are co-transfected with EcoRI/HindIII digested mutant RT plasmid and Bst EII-digested HIV-1HXB2ΔRT DNA in the presence of DMRIE-C transfection reagent (Gibco) according to supplier's recommended protocol. Each mutant RT coding sequence is crossed into the RT-deleted HIV-1 viral DNA backbone by in vivo homologous recombination. Transfected cell cultures are expanded and monitored until syncitia formation and CPE are extensive. Virus is harvested by clear spin of the culture supernatants, filtration of the supernatants through a 0.45 micron membrane and frozen at −80° C. as primary stocks. Recombinant progeny virus is sequenced in the RT region to confirm the mutant genotype. Some virus stocks require further expansion by infection of MT4 cells, harvested as above and stored as frozen aliquots. All stocks are titered in HeLa MAGI cells for assay.
(§5) HIV-1 virus stocks are titered in the HeLa-CD4-LTR-β-gal assay system to establish the appropriate infecting dose. The endpoint for this assay is relative light units (RLUs), and titer is recorded as RLUs/ml. Virus stocks are diluted (serial 1:2) into DMEM containing 10% FBS plus 25 ug/ml DEAE-dextran and assayed as described in the “Experimental Protocol” section below without test compound.
(§6) • 1. Seed 96-well plate(s) (Costar #3904) with HeLa-CD4-LTR-β-gal @ 3×10^3 cells per well in 100 ul DMEM containing 10% FBS. Incubate @ 37° C., 5% CO2 overnight. Day 2 • 1. Thaw virus stock in a water bath (room temperature) and dilute into DMEM+10% FBS+25 ug/ml DEAE-dextran to an infectious dose of approximately 10 million RLU/ml. The dilution of virus will vary depending on the titer of the stock (see “Titering of virus stocks” above). • 2. Remove all of the media from every well with an 8 or 12-channel manifold aspirator. Work with one plate at a time to prevent drying of the HeLa-CD4-LTR-β-gal monolayer. Add 35 ul (approximately 350,000 total RLUs) of diluted virus to each well. […]

[2] = test system: HIV-1 V106A RT mutant; settings: Human immunodeficiency virus 1, HeLa, read-out: V106A activity level, HeLa-CD4-LTR-β-gal cells, V106A virus
Text: as §1, §2, §3, §4, §5, §6

[3] = test system: HIV-1 K103N RT mutant; settings: Human immunodeficiency virus 1, HeLa, read-out: K103N activity level, HeLa-CD4-LTR-β-gal cells, K103N virus
Text: as §1, §2, §3, §4, §5, §6

Structure (SMILES)	IC50 [1] [µM]	IC50 [2] [µM]	IC50 [3] [µM]
N#Cc1cc(Cl)cc(Oc2c(Cl)ccc(CNC(=O)c3cn(C(c4ccccc4)(c4ccccc4)c4ccccc4)cn3)c2F)c1 [Example 83, N-({4-chloro-3-[(3-chloro-5-cyanophenyl)oxy]-2-fluorophenyl}methyl)-1-(triphenylmethyl)-1H-imidazole-4-carboxamide]	> 1	> 1	> 1
Cc1[nH]c(C(=O)NCc2ccc(Cl)c(Oc3cc(Cl)cc(C#N)c3)c2F)c(C)c1C#N [Example 71, N-({4-chloro-3-[(3-chloro-5-cyanophenyl)oxy]-2-fluorophenyl}methyl)-4-cyano-3,5-dimethyl-1H-pyrrole-2-carboxamide trifluoroacetate]	< 0.01	< 0.01	< 0.01
CC(=O)Nc1ccc2cc(C(=O)NCc3ccc(Cl)c(Oc4cc(Cl)cc(C#N)c4)c3F)[nH]c2c1 [Example 122, 6-(acetylamino)-N-({4-chloro-3-[(3-chloro-5-cyanophenyl)oxy]-2-fluorophenyl}methyl)-1H-indole-2-carboxamide]	< 0.01	< 0.01	< 0.01
N#Cc1cc(Cl)cc(Oc2c(Cl)ccc(CNC(=O)c3[nH]c4cc(OCCO)ccc4c3Br)c2F)c1 [Example 141, 3-Bromo-N-({4-chloro-3-[(3-chloro-5-cyanophenyl)oxy]-2-fluorophenyl}methyl)-6-[(2-hydroxyethyl)oxy]-1H-indole-2-carboxamide]	< 0.01	< 0.01	< 0.01
Cc1nc(Br)c(C(=O)NCc2ccc(Cl)c(Oc3cc(Cl)cc(C#N)c3)c2F)[nH]1 [Example 134, 4-bromo-N-({4-chloro-3-[(3-chloro-5-cyanophenyl)oxy]-2-fluorophenyl}methyl)-2-methyl-1H-imidazole-5-carboxamide]	< 0.01	< 0.01	< 0.01
N#Cc1cc(Cl)cc(Oc2c(Cl)ccc(CNC(=O)c3[nH]c4ccccc4c3Cl)c2F)c1 [Example 75, 3-chloro-N-({4-chloro-3-[(3-chloro-5-cyanophenyl)oxy]-2-fluorophenyl}methyl)-1H-indole-2-carboxamide trifluoroacetate]	0.01 to 1	< 0.01	< 0.01
COc1ccc2[nH]c(C(=O)NCc3ccc(Cl)c(Oc4cc(Cl)cc(C#N)c4)c3F)cc2c1 [Example 20, N-({4-chloro-3-[(3-chloro-5-cyanophenyl)oxy]-2-fluorophenyl}methyl)-5-(methyloxy)-1H-indole-2-carboxamide]	0.01 to 1	0.01 to 1	0.01 to 1
N#Cc1cc(Cl)cc(Oc2c(Cl)ccc(CNC(=O)c3cc4c5c(ccc4[nH]3)N(C(N)=O)CC5)c2F)c1 [Example 44, N^2-({4-chloro-3-[(3-chloro-5-cyanophenyl)oxy]-2-fluorophenyl}methyl)-7,8-dihydropyrrolo[3,2-e]indole-2,6(3H)-dicarboxamide]	0.01 to 1	0.01 to 1	< 0.01
Cc1ccc2[nH]c(C(=O)NCc3ccc(Cl)c(Oc4cc(Cl)cc(C#N)c4)c3F)c(C)c2c1 [Example 52, N-({4-chloro-3-[(3-chloro-5-cyanophenyl)oxy]-2-fluorophenyl}methyl)-3,5-dimethyl-1H-indole-2-carboxamide trifluoroacetate]	0.01 to 1	0.01 to 1	0.01 to 1
N#Cc1cc(Cl)cc(Oc2c(Cl)ccc(CNC(=O)c3cc4ccc(C#N)cc4[nH]3)c2F)c1 [Example 79, N-({4-chloro-3-[(3-chloro-5-cyanophenyl)oxy]-2-fluorophenyl}methyl)-6-cyano-1H-indole-2-carboxamide trifluoroacetate]	< 0.01	0.01 to 1	< 0.01
N#Cc1cc(Cl)cc(Oc2c(Cl)ccc(CNC(=O)c3cccnc3)c2F)c1 [Example 94, N-({4-chloro-3-[(3-chloro-5-cyanophenyl)oxy]-2-fluorophenyl}methyl)-3-pyridinecarboxamide trifluoroacetate]	0.01 to 1	> 1	0.01 to 1
COc1ccc(C(=O)NCc2ccc(Cl)c(Oc3cc(Cl)cc(C#N)c3)c2F)cn1 [Example 42, N-({4-chloro-3-[(3-chloro-5-cyanophenyl)oxy]-2-fluorophenyl}methyl)-6-(methyloxy)-3-pyridinecarboxamide]	> 1	> 1	> 1
CNCC(=O)Nc1ccc2[nH]c(C(=O)NCc3ccc(Cl)c(Oc4cc(Cl)cc(C#N)c4)c3F)cc2c1 [Example 119]	0.01 to 1	0.01 to 1	< 0.01
CC(O)CCOc1ccc2[nH]c(C(=O)NCc3ccc(Cl)c(Oc4cc(Cl)cc(C#N)c4)c3F)cc2c1 (stereo not drawn) [Example 106, N-({4-chloro-3-[(3-chloro-5-cyanophenyl)oxy]-2-fluorophenyl}methyl)-5-[(3-hydroxybutyl)oxy]-1H-indole-2-carboxamide]	< 0.01	0.01 to 1	< 0.01
N#Cc1cc(Cl)cc(Oc2c(Cl)ccc(CNC(=O)c3cc4cc(NC(=O)CCN)ccc4[nH]3)c2F)c1 [Example 116, 5-(β-alanylamino)-N-({4-chloro-3-[(3-chloro-5-cyanophenyl)oxy]-2-fluorophenyl}methyl)-1H-indole-2-carboxamide]	0.01 to 1	0.01 to 1	< 0.01
N#Cc1cc(Cl)cc(Oc2c(Cl)ccc(CNC(=O)c3cc4ccc(OCCO)cc4[nH]3)c2F)c1 [Example 142, N-({4-chloro-3-[(3-chloro-5-cyanophenyl)oxy]-2-fluorophenyl}methyl)-6-[(2-hydroxyethyl)oxy]-1H-indole-2-carboxamide]	< 0.01	< 0.01	< 0.01
N#Cc1cc(Cl)cc(Oc2c(Cl)ccc(CNC(=O)c3ccccn3)c2F)c1 [Example 85, N-({4-chloro-3-[(3-chloro-5-cyanophenyl)oxy]-2-fluorophenyl}methyl)-2]	0.01 to 1	0.01 to 1	0.01 to 1
N#Cc1cc(Cl)cc(Oc2c(Cl)ccc(CNC(=O)c3[nH]c4cc(Cl)ccc4c3Cl)c2F)c1 [Example 55, 3,6-dichloro-N-({4-chloro-3-[(3-chloro-5-cyanophenyl)oxy]-2-fluorophenyl}methyl)-1H-indole-2-carboxamide trifluoroacetate]	0.01 to 1	0.01 to 1	0.01 to 1
COc1cccc2[nH]c(C(=O)NCc3ccc(Cl)c(Oc4cc(Cl)cc(C#N)c4)c3F)cc12 [Example 34, N-({4-chloro-3-[(3-chloro-5-cyanophenyl)oxy]-2-fluorophenyl}methyl)-4-(methyloxy)-1H-indole-2-carboxamide]	0.01 to 1	0.01 to 1	0.01 to 1
N#Cc1cc(Cl)cc(Oc2c(Cl)ccc(CNC(=O)c3[nH]c4cc(O)ccc4c3Br)c2F)c1 [Example 61, 3-bromo-N-({4-chloro-3-[(3-chloro-5-cyanophenyl)oxy]-2-fluorophenyl}methyl)-6-hydroxy-1H-indole-2-carboxamide trifluoroacetate]	< 0.01	< 0.01	< 0.01

Structures can show the parent of a compound that is named as a salt.
